Test results as given in PubChem BioAssay (NCATS).
Inconclusive means that the source gave no clear call. Such entries were picked first, then a sample of the others. For some of these results: No potency is given beside an inconclusive call; the fits are too rough. The source made the active and inactive calls. Unless noted, the call rests on the fitted dose curve; in most records, active means well fitted curve in the direction sought with a large enough effect; inconclusive means small, poorly fitted or top-dose-only effect, or another doubt; inactive means no such curve, though single readings can be large; an effect the other way counts as inactive or inconclusive.

Legend:
[1] = qHTS of pediatric cancer cell lines to identify multiple opportunities for drug repurposing: Primary screen for SK-N-MC cells (AID 1347093); conditions: SK-N-MC viability, CellTiter-Glo luminescence, 48 h; activity change, negative = cytotoxic: at 46 µM (top of the series)
Outline: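 Metabolically active cells were quantified by ATP-dependent luminescence (CellTiter-Glo, 15 min at room temperature) following 48 h treatment. Cells had been plated at 500-1,000 per well and settled for 5 h beforehand.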

[2] = qHTS of pediatric cancer cell lines to identify multiple opportunities for drug repurposing: Primary screen for Saos-2 cells (AID 1347097); conditions: Saos-2 viability, CellTiter-Glo ATP luminescence, 48 h; activity change, negative = cytotoxic: at 46 µM (top of the series); further: nearly all actives have a fitted effect of over 40% in size; further: potency means the concentration at half of the fitted maximal effect
Outline: (§1)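 Readout: CellTiter-Glo luminescence, 48 h treatment. Controls DMSO (neutral) and bortezomib 2.3 µM final (positive). Potency and efficacy taken from primary-screen concentration-response curves.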

MKL-2 = experiment: qHTS assay to identify novel small-molecules to repurpose for Merkel cell carcinoma treatment (AID 1296009); conditions: MCC and control cell lines, CellTiter-Glo viability, 72 h; series mostly up to 46 µM; further: nearly all actives have a fitted effect of over 60% in size; further: potency means the concentration at half of the fitted maximal effect
Outline: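 Cell viability measured by CellTiter-Glo following 72 hr compound treatment at 37 degree celsius, with NPC and MIPE libraries tested in 8- and 11-point concentration series.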

SKOV3 = experiment: Primary qHTS to identify gynecologic anti-cancer compounds using libraries of approved drugs and bioactive compounds (AID 1345084); conditions: Gynecologic cancer cell panel viability, ATPlite luminescence, 48 h; series mostly up to 57.5 µM; further: nearly all actives have a fitted effect of over 55% in size; further: potency means the concentration at half of the fitted maximal effect
Outline: (§2)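 ATP-based viability (ATPlite), 1,000 cells/well, 16 h pre-incubation, 48 h compound at 37 C, 5% CO2, 15 min RT before read.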

[3] = Drug repurposing screens with cells derived from glioblastoma tumor samples (AID 1345199); conditions: GBM patient neurospheres viability, ATP luminescence, 48 h; further: nearly all actives have a fitted effect of over 40% in size; further: potency means the concentration at half of the fitted maximal effect
Outline: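 Primary testing used CD133+ neurospheres from four GBM patients, seven concentrations, 48 h exposure and ATP-based viability; confirmation added three slower-growing patient lines.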

W2 = experiment: qHTS profiling for inhibitors of Plasmodium falciparum proliferation (AID 504749); further: nearly all actives have a fitted effect of over 60% in size; further: potency means the concentration at half of the fitted maximal effect; conditions: P. falciparum in erythrocytes, SYBR Green DNA, 72 h; activity, negative = inhibition: at 28.7 µM (top of the series)
Outline: (§3)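 In a 72 h erythrocytic culture (37 C, humidified, 5% CO2) at 2.5% hematocrit and 0.3% starting parasitemia, compounds were tested; SYBR Green I in detergent lysis buffer stained parasite DNA overnight.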

[4] = qHTS of pediatric cancer cell lines to identify multiple opportunities for drug repurposing: Primary screen for Rh41 cells (AID 1347108);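 further: luminescence drop marks cytotoxic hits; nearly all actives have a fitted effect of over 70% in size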
Outline: as §1

DIV17 = experiment: qHTS profiling for inhibitors of Plasmodium falciparum proliferation (AID 504749); further: nearly all actives have a fitted effect of over 60% in size; further: potency means the concentration at half of the fitted maximal effect; conditions: P. falciparum in erythrocytes, SYBR Green DNA, 72 h; activity, negative = inhibition: at 28.7 µM (top of the series)
Outline: as §3

[5] = Primary qHTS for inhibitors of nuclear receptor binding SET domain protein 2 (NSD2) in an RCH-ACV wild type WT cells (2C) (AID 1645877); conditions: activity change, negative = cell killing: at 44.9 µM (top of the series) unless noted; further: nearly all actives have a fitted effect of over 70% in size; further: potency means the concentration at half of the fitted maximal effect
[6] = qHTS of pediatric cancer cell lines to identify multiple opportunities for drug repurposing: Primary screen for OHS-50 cells (AID 1347103); conditions: OHS-50 osteosarcoma viability, CellTiter-Glo luminescence, 48 h; activity change, negative = cytotoxic: at 57.3 µM (top of the series); further: nearly all actives have a fitted effect of over 40% in size; further: potency means the concentration at half of the fitted maximal effect
Outline: (§4)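 Cells (500-1,000/well) rested 5 h, then received compounds for 48 h; metabolically active cells were measured by CellTiter-Glo luminescence. Final concentrations spanned up to 46 µM (MIPE, 11-point) or 0.59 nM-46 µM (NPC, 8-point) in primary screens, 11-point in follow-ups.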

[7] = Primary qHTS for inhibitors of nuclear receptor binding SET domain protein 2 (NSD2) in an isogenic RCH-ACV NSD2 p.E1099K mutant (9B) (AID 1645876); conditions: activity change, negative = viability loss: at 44.9 µM (top of the series) unless noted; further: nearly all actives have a fitted effect of over 70% in size; further: potency means the concentration at half of the fitted maximal effect
CAOV3 = experiment: Primary qHTS to identify gynecologic anti-cancer compounds using libraries of approved drugs and bioactive compounds (AID 1345084); conditions: Gynecologic cancer cell panel viability, ATPlite luminescence, 48 h; series mostly up to 57.5 µM; further: nearly all actives have a fitted effect of over 55% in size; further: potency means the concentration at half of the fitted maximal effect
Outline: as §2

[8] = Primary qHTS for small molecule stabilizers of the endoplasmic reticulum resident proteome: Secreted ER Calcium Modulated Protein (SERCaMP) assay (AID 1508630); conditions: SH-SY5Y GLuc-SERCaMP (Gaussia luciferase released on ER calcium loss) secretion, thapsigargin, luminescence; series mostly up to 38.4 µM; further: potency means the concentration at half of the fitted maximal effect
Outline: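 The SH-SY5Y reporter protocol was run at 3 concentrations up to 38.3 uM (primary) or 11 concentrations (follow-up): 16 h compound, 100 nM thapsigargin for 4 h, then extracellular luciferase luminescence.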

[9] = qHTS of pediatric cancer cell lines to identify multiple opportunities for drug repurposing: Primary screen for A673 cells (AID 1347092); conditions: A673 Ewing sarcoma viability, CellTiter-Glo ATP luminescence, 48 h; activity change, negative = cytotoxic: at 46 µM (top of the series); further: nearly all actives have a fitted effect of over 45% in size
Outline: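 Cells are plated, rested 5 h, dosed by pintool, incubated 48 h, then lysed with CellTiter-Glo and read by luminescence. DMSO is the neutral control; bortezomib at 2.3 uM final is the positive control.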

[10] = qHTS of pediatric cancer cell lines to identify multiple opportunities for drug repurposing: Primary screen for BT-37 cells (AID 1347094)
Outline: as §1

[11] = A High-Content qHTS Against Drug Library for the Identification of Small Molecules that Inhibit DYT1 Early Onset Primary Dystonia-Associated Cell Pathology (AID 1645839; calls by dose curve; further: potency means the concentration at half of the fitted maximal effect)
Outline: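 High-content imaging quantified EGFP-TorsinA mislocalization in HEK293-derived cells inducibly expressing DYT1 mutant torsinA, after 48 h exposure to compound given together with tetracycline induction. Cell count served as a toxicity channel alongside %pathology.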

[12] = qHTS of pediatric cancer cell lines to identify multiple opportunities for drug repurposing: Primary screen for SK-N-SH cells (AID 1347098); further: nearly all actives have a fitted effect of over 65% in size; further: potency means the concentration at half of the fitted maximal effect
Outline: as §4

[13] = target: Cytochrome P450 2D6 (Homo sapiens) (UniProt P10635); experiment: Cytochrome P450 family 2 subfamily D member 6 (CYP2D6) small molecule antagonists: luciferase biochemical (cell-free) qHTS assay (AID 1645840; active means well fitted curve in the direction sought with a large enough effect in the repeat runs; inconclusive means weak or mixed curves; inactive means no such curve, though single readings can be large; an effect the other way counts as inactive or inconclusive; further: nearly all actives have a fitted effect of over 55% in size)
Outline: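 P450-Glo CYP2D6 system: proluciferin substrate converted by enzyme to luciferin, read by luminescence proportional to activity. Enzyme-substrate mix with compound 10 min at room temperature, then NADPH regeneration 1 h before detection reagent.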

[14] = Potency: tumour line A unless noted, activity, negative = cell killing: at 46 µM (top of the series), tumour line A unless noted
Tags describe the fitted curve by direction and shape.

Sequence of UniProt P10635 (P10635 whole entry, looked up): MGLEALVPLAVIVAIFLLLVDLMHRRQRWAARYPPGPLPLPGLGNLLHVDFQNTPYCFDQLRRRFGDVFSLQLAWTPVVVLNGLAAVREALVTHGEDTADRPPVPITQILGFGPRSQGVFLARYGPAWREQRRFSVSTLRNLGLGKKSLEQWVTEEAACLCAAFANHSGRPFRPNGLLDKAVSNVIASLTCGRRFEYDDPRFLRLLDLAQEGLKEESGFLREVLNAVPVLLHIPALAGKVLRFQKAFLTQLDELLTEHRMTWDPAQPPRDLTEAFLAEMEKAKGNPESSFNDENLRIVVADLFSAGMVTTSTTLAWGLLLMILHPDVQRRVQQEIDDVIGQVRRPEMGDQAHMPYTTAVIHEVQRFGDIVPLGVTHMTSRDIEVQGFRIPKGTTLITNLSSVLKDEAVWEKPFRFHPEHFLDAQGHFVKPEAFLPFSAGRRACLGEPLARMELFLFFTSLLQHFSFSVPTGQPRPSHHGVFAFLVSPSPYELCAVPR

Nc1c2c(nc3c1CCC3)CCCC2
Potency [1]: inactive | Potency [2]: inconclusive [cytotoxic, single point] | Potency (MKL-2): inactive | Potency (SKOV3): inactive | Potency [3, 14]: inconclusive [inhibitor, partial curve] | Potency (W2): inconclusive [inhibitor, single point]

C[C@@H](N)C(=O)O
Potency [4]: inactive | Potency (MKL-2): inactive | Potency (SKOV3): inactive | Potency [3, 14]: inconclusive [inhibitor, partial curve] | Potency (DIV17): inactive

O=C(O)Cc1sc(-c2ccccc2)nc1-c1ccc(Cl)cc1
Potency [4]: inactive | Potency [5]: inactive | Potency (MKL-2): inactive | Potency [3, 14]: inactive

CC(=O)N[C@@H](Cc1ccc(O)cc1)C(=O)O
Potency [1]: inactive | Potency [2]: inconclusive [cytotoxic, partial curve, poor fit] | Potency [6]: inactive | Potency [7]: inactive | Potency (MKL-2): inactive | Potency (CAOV3): inconclusive [rising, partial curve, poor fit] | Potency [3, 14]: inconclusive [inhibitor, full curve, poor fit] | Potency (DIV17): inactive | Potency (W2): inconclusive [inhibitor, single point]

CC(=O)OC[C@H]1O[C@@](COC(C)=O)(O[C@H]2O[C@H](COC(C)=O)[C@@H](OC(C)=O)[C@H](OC(C)=O)[C@H]2OC(C)=O)[C@@H](OC(C)=O)[C@@H]1OC(C)=O
Potency [1]: inactive | Potency [2]: inactive | Potency [4]: inactive | Potency [8]: inactive | Potency (MKL-2): inactive | Potency (SKOV3): inactive | Potency [3, 14]: inactive

NCCCC[C@H](N[C@@H](CCc1ccccc1)C(=O)O)C(=O)N1CCC[C@H]1C(=O)O
Potency [8]: inconclusive [inhibitor, single point] | Potency [7]: inactive | Potency (MKL-2): inactive | Potency (CAOV3): inactive | Potency [3, 14]: inactive

NC(=O)NS(=O)(=O)c1ccc(Cl)cc1
Potency [9]: inactive | Potency [8]: inconclusive [inhibitor, full curve, poor fit] | Potency [7]: inconclusive [inhibitor, single point] | Potency [5]: inconclusive [inhibitor, single point] | Potency (MKL-2): inactive | Potency (SKOV3): inconclusive [rising, single point]

CN(C)CCN(Cc1cccs1)c1ccccn1
Potency [6]: inconclusive [cytotoxic, partial curve] | Potency [4]: inactive | Potency [8]: inactive | Potency (MKL-2): inactive | Potency (CAOV3): inactive | Potency (W2): active: 1.9 µM

CC(C)(C)NC(=O)[C@@H]1CN(Cc2cccnc2)CCN1C[C@@H](O)C[C@@H](Cc1ccccc1)C(=O)N[C@H]1c2ccccc2C[C@H]1O
Potency [7]: inconclusive [inhibitor, single point] | Potency [5]: inconclusive [inhibitor, single point] and inactive | Potency (MKL-2): inactive | Potency (CAOV3): inconclusive [rising, partial curve, poor fit]

CCCC(CCC)(C(=O)OCC)C(=O)OCC
Potency [9]: inactive | Potency [10]: inactive | Potency [8]: inconclusive [inhibitor, partial curve, poor fit] | Potency [11]: inactive | Potency [7]: inactive | Potency (MKL-2): inactive

O=C(O)CCc1nc(-c2ccccc2)c(-c2ccccc2)o1
Potency [12]: inactive | Potency [6]: inactive | Potency [11]: inactive | Potency [13]: inactive | Potency (MKL-2): inconclusive [inhibitor, full curve, poor fit] | Potency [3, 14]: inconclusive [inhibitor, partial curve]

CO/N=C1\CN(c2nc3c(cc2F)c(=O)c(C(=O)O)cn3C2CC2)CC1CN (stereo unspecified)
Potency [7]: inconclusive [inhibitor, single point] | Potency [5]: inconclusive [inhibitor, single point] | Potency (MKL-2): inactive | Potency [3, 14]: inconclusive [inhibitor, full curve] | Potency (DIV17): inconclusive [inhibitor, single point]

CC(C)Cc1ccc(CC(=O)O)cc1
Potency [4]: inactive | Potency [13]: inactive | Potency [7]: inconclusive [inhibitor, single point] | Potency [5]: inconclusive [inhibitor, partial curve, poor fit] | Potency (MKL-2): inactive

CC(C)(C)c1ccc(C(O)CCCN2CCC(C(O)(c3ccccc3)c3ccccc3)CC2)cc1 (stereo unspecified)
Potency [12]: inconclusive [cytotoxic, single point] | Potency [11]: inconclusive [inhibitor, single point] | Potency (MKL-2): inactive | Potency (SKOV3): inactive | Potency ([3]; tumour line A): active: 5.01 µM | Potency ([3]; tumour line D): active: 10 µM

NS(=O)(=O)c1ccc(N2CCCCS2(=O)=O)cc1
Potency [8]: inactive | Potency [11]: inactive | Potency [7]: inactive | Potency (MKL-2): inactive | Potency (CAOV3): inactive

CCCc1c2oc(C(=O)O)cc(=O)c2cc2c(=O)cc(C(=O)O)n(CC)c12
Potency [2]: inactive | Potency [12]: inactive | Potency (MKL-2): inactive | Potency (CAOV3): inactive | Potency (SKOV3): inconclusive [rising, single point] | Potency [3, 14]: inactive
